Assay results as given in patent US6890523B2 (priority 1999, dated 2005).

Assays:
C. difficile [1] = test system: C. difficile
C. difficile [2] = details: in vivo
C. difficile [3] = details: in vivo; cited from earlier work

SMILES: Cc1ncc([N+](=O)[O-])n1CCO [metronidazole]
- animals surviving 16 days after the last dose of antibiotic (C. difficile [1]; hamster, metronidazole alone): 20%
- animals with relapse/recurrence of CDAD at the conclusion of therapy (C. difficile [1]; in vivo): 80-90%
- animals protected, monotherapy after CDAD onset (C. difficile [2]): 20%
- time to relapse or recurrence after stopping therapy (C. difficile [3]): 1 to 2 weeks
- time to symptomatic improvement (C. difficile [3]): 4 to 8 days
- treated patients with relapse or recurrence of CDAD (C. difficile [3]): 20%
